Experimental data: PMC12136788
The other results are listed elsewhere or left out.

B1: chr19:48922626:48922741:+|3pUTR|ENSG00000104805|msi1|FALSE|unique (ssRNA)
RNA: GGGAGUUCUACAGUCCGACGAUCUCCUCCGAGGGGCUUGCCUUCUCUCGUGUCCAGUGAGGUGCUCAGUGAUCGGCUUAACUUAGAGAAGCCCGCCCCCUCCCCUUCUCCGUCUGUCCCAAGAGGGUCUGCUCUGAGCCUGCGCAACAGAGGAUUGAGCAUCA
B2: ENSG00000154380:stop:overlap|stop_codon|ENSG00000154380|stop_codon|NA|stop_codon (ssRNA)
RNA: GGGAGUUCUACAGUCCGACGAUCAGCUAAAAGAAGAGCUCAUUGAUGCAAUCAGGCAGGAACUGAGCAAGUCAAAUACUGCAUAGAGGAACAGACUAAGGAGAGAUAGGACUUUAAUCUGGAGGAAAAAUAUCCUACAAACAACAACAGAGGAUUGAGCAUCA
B3: chr1:85021069:85021276:-|CDS|ENSG00000055732|control|control|control (ssRNA)
RNA: GGGAGUUCUACAGUCCGACGAUCGAUAUGUUUGCCACGUUUGCAAAAAUGCAGCAAAAAAGUUACUUAGUCUGGCUGUUUAGUAGAAUUUACCUCUACUCAUUCAUCAGCCUCUUUAUAUAUAUGAUUUUAAGUCUUUUCAUUCAACAGAGGAUUGAGCAUCA
B4: chr2:200490383:200490484:-|CDS|ENSG00000155729|msi1|FALSE|unique (ssRNA)
RNA: GGGAGUUCUACAGUCCGACGAUCUCUCCAGCCAGUGCCAUCCAGACGUCGGCUGGGGCGACAGCAAACCGGUUUCAAAGUGGUAGCCGCAGAAAGGCAGCUCAGCGCUCUGCACCUUCCAGAGCCACGGCCCUGGUGGGCACGCAACAGAGGAUUGAGCAUCA
B5: chr10:62806226:62806343:+|3pUTR|ENSG00000181915|unk|total|mutant (ssRNA)
RNA: GGGAGUUCUACAGUCCGACGAUCCUACCCCUCCGUUAAACCGGGUUUAUUUUCCACUCAUGCCCUUAUGCCUUUUUUUCUUACCGUUUUUUAACUUAUUGACUGUGCAUGACCCAGUGGUUUGAAUUGUUUUCCGUUCAAGUCCAACAGAGGAUUGAGCAUCA
B6: ENSG00000124766:be:win_1251|CDS|ENSG00000124766|bound_else_gene|NA|bound_elsewhere_windowed (ssRNA)
RNA: GGGAGUUCUACAGUCCGACGAUCGUCCCUGGGCAGCUUCAGUUCGUCGUCGGCGCUCGACCGGGACCUGGAUUUUAACUUCGAGCCCGGCUCCGGCUCGCACUUCGAGUUCCCGGACUACUGCACGCCCGAGGUGAGCGAGAUCAACAGAGGAUUGAGCAUCA
B7: chr8:96261867:96261970:+|5pUTR|ENSG00000156471|unk|FALSE|bound_elsewhere (ssRNA)
RNA: GGGAGUUCUACAGUCCGACGAUCUCCUUCCCUCUGCUCCCAGCCUUUGCUGGGCGCCAGACCCGGCUUUGCCGUCCGGCUAUUAGCCUACUGUGGCUAGUCACCCCCGGGGUCCCGGCCUUCUCGGGCUGGGGCCGCCGCCACCAACAGAGGAUUGAGCAUCA
B8: chrX:21994482:21994713:+|3pUTR|ENSG00000102172|msi1|FALSE|unique (ssRNA)
RNA: GGGAGUUCUACAGUCCGACGAUCCAGCUGAAGGAUGGUUAGACAGCACAGCGAAGACUGCUAAAUGCACUGACCCCCCCCAUUAGAAUGUGAUUUUUGUUCCUUUUUAUUUCUCUGUGGGCUUUUGUUUUUGUUUUUGUUUUGCAACAGAGGAUUGAGCAUCA
B9: chr12:88196262:88196297:+|3pUTR|ENSG00000139324|msi1_unk|FALSE|overlapping (ssRNA)
RNA: GGGAGUUCUACAGUCCGACGAUCUGUAUACUUGUUUUUAACUUUAAAUGUAAUUUUUAAUCAGGUAAAGUUUGACACAUGUAUAGCUACAUACACACAUUUUUAAUGGUGCUCAUAUAUACUGUAUUUUUUGUUGUUUAGUUUCAACAGAGGAUUGAGCAUCA
B10: chr2:159432892:159433005:-|CDS|ENSG00000123636|unk|FALSE|unique (ssRNA)
RNA: GGGAGUUCUACAGUCCGACGAUCACACCUGUAAUGCCCUCUGCCUCUCCCAUCCUGCAUAGUCAAGGGAAGGAAAAAGCAGUUAGCAAUAAUGUAAACCCAGUAAAAACACAGCAUCACUCCCAUCCUGCAAAAUCUUUAGUGCAACAGAGGAUUGAGCAUCA
B11: ENSG00000107863:be:win_5451|CDS|ENSG00000107863|bound_else_gene|NA|bound_elsewhere_windowed (ssRNA)
RNA: GGGAGUUCUACAGUCCGACGAUCUUUUUGGAAAGUGCAUGAGCAGAGCGGGGAGAGAGAAUCUGAACUUUCAGCUGUAAACCGGUUAAAACCAAAAUGCUCAGCCCAGGACCUUUCCAUCUCAGACUGGCUGGCCAGGGAACGCAACAGAGGAUUGAGCAUCA
B12: chr2:85649053:85649154:+|3pUTR|ENSG00000168883|unk|FALSE|unique (ssRNA)
RNA: GGGAGUUCUACAGUCCGACGAUCUUCAGCAGGGCAGAACCCUUCUCCAGAUGUGUGUAACUUAUGUCUUGAGUAUCUGGGAGUAGUUGAAGAACAGAUAAUUCCUUCCAAACAUCAAGCCUUGGGAUUCUUGGAGCAAGCAGACAACAGAGGAUUGAGCAUCA
B13: chr12:49323620:49323721:+|CDS|ENSG00000135451|unk|total|mutant (ssRNA)
RNA: GGGAGUUCUACAGUCCGACGAUCAUCAUGACCACCCGGCAAGCCACGAAGGAUCCCCUCCUCCGGGGUGUAUCUCCUACCCCCCGCAAGAUUCCGGUACGCUCUCAGAAACGCACGCCUUUCCCCACUGUUACAUCGUGCGCCCAACAGAGGAUUGAGCAUCA
B14: chr20:23564731:23564947:-|three_prime_utr|ENSG00000101435|control|control|control (ssRNA)
RNA: GGGAGUUCUACAGUCCGACGAUCAGCUUUGGACUUGUUUGUUAUCCUAUUUUGCAUGUGUUUGAGAUCUCAGAUCAGUGUUUUAGAAAAUCCACACAUCUUGAGCCUAAUCAUGUAGUGUAGAUCAUUAAACAUCAGCAUUUUCAACAGAGGAUUGAGCAUCA
B15: chr7:123692404:123692516:-|CDS|ENSG00000106299|unk|total|mutant (ssRNA)
RNA: GGGAGUUCUACAGUCCGACGAUCCCUGCCUUCUGAUGGGGACCAUCAGGUUCCAACUACUGCAGGAAACAAAGCAGCUCUUUCCGAUCAAAUCCGAGAGGGUGCUCAGCUAAAAAAAGUGGAGCAGAACAGUCGGCCAGUGUCCAACAGAGGAUUGAGCAUCA
B16: chr8:17299120:17299221:-|3pUTR|ENSG00000003987|unk|FALSE|unique (ssRNA)
RNA: GGGAGUUCUACAGUCCGACGAUCUCCUCAUUAUUUAAAAAUGCUAAACCUUGUAUCUCACUUUUUCUCUAACACUGAUUUAAUAGCUAACGAGGUAGAAGCAACAUUCAUUCUCCUGGUCUUACAUAUGAAUUUAAGUAUCAGCAACAGAGGAUUGAGCAUCA
B17: chr11:61866713:61866887:+|3pUTR|ENSG00000134824|msi1|total|mutant (ssRNA)
RNA: GGGAGUUCUACAGUCCGACGAUCCUCUCCUGUCUGAACCUGCCCUUACUGUGUUUAACCUGUUGCUCCAGGAUGCAUUCUGACCGGAGGGGGCGGCAGGGCUGGGCCUUGUGACAAUCUGCCUUUCACCACAUGGCCUUGCCUCAACAGAGGAUUGAGCAUCA
B18: chr8:94832020:94832135:+|CDS|ENSG00000164941|unk|FALSE|unique (ssRNA)
RNA: GGGAGUUCUACAGUCCGACGAUCGGUACUAGAAGCAGCCCUAAAAUUAAACAAGGAUCUUUAUGUCCAUACGAUGAGAACUCUAGAUUUAUUGGCCAUGGAACCAGGCAUGGUAAAUGGAGAAACUGAGAGUUCUACUGCUGGCAACAGAGGAUUGAGCAUCA
B19: chr1:179108573:179108674:-|CDS|ENSG00000143322|unk|FALSE|bound_elsewhere (ssRNA)
RNA: GGGAGUUCUACAGUCCGACGAUCAGCCAAGUUAUUGCCCAGAGGAGCCACAGCUCUUCCUCUCAGAACACCCUCUGGGGAUCUAGCCAUUACAGAGAAGGACCCUCCAGGGGUGGGAGUGGCUGGAGUGGCAGCUGCCCCCAACAACAGAGGAUUGAGCAUCA
B20: ENSG00000070961:be:win_301|CDS|ENSG00000070961|bound_else_gene|NA|bound_elsewhere_windowed (ssRNA)
RNA: GGGAGUUCUACAGUCCGACGAUCUUAGUAUGGGAAGCAUUACAAGAUGUCACUUUAAUUAUAUUAGAAAUUGCAGCCAUAGUAUCAUUGGGCCUUUCUUUUUAUCAGCCUCCAGAAGGGGAUAAUGCACUUUGUGGAGAAGUUCAACAGAGGAUUGAGCAUCA
B21: chr2:25738620:25738721:-|3pUTR|ENSG00000143970|unk|total|mutant (ssRNA)
RNA: GGGAGUUCUACAGUCCGACGAUCAUACAUAUUAAUGACCUGACAGUUAACAUUCUGUUGUUUAUUAUUGCCUUUCUCCACCUCCGAGAGCCAUAAAUAACUCUCUGGUGAAGUGAUUUGCUAUAAUGGGGGUGAGGAGUGGGGCAACAGAGGAUUGAGCAUCA
B22: chr10:73916565:73916770:+|3pUTR|ENSG00000122861|msi1|FALSE|unique (ssRNA)
RNA: GGGAGUUCUACAGUCCGACGAUCCUGGUUGUCAUUUUUGCAGUAGAGUCAUCUCCAUCAGCUGUAAGAAGAGACUGGGAAGAUAGGCUCUGCACAGAUGGAUUUGCCUGUGCCACCCACCAGGGCGAACGACAAUAGCUUUACCAACAGAGGAUUGAGCAUCA

Each binder was assayed against MSI1 full-length (mouse, UniProt Q61474 1-362) (assay: nsRBNS (natural sequence RNA bind-n-seq); RBNS binding buffer (assumed for nsRBNS): 25 mM Tris pH 7.5, 150 mM KCl, 3 mM MgCl2, 0.01% Triton X-100, 500 ug/ml BSA, 20 U/ml SUPERase-In, 4 C; UNK is unkempt and MSI1 is Musashi-1; names of the RNAs are library labels; protein concentration not given here; high values mean tight binding).
UniProt Q61474, sequence (Q61474 whole entry): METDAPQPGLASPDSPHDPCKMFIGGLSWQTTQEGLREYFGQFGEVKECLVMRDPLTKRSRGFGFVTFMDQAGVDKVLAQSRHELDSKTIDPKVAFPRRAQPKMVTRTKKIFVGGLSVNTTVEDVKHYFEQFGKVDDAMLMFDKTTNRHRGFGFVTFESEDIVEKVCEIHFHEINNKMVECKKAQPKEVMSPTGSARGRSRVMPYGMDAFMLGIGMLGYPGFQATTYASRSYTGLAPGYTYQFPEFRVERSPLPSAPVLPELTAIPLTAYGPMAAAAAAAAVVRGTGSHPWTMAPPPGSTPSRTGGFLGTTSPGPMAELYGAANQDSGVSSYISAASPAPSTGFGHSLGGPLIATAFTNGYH

| Binder | binding signal [enrichment R] |
| --- | --- |
| B1 | 0.793 |
| B2 | 1.16 |
| B3 | 3.09 |
| B4 | 0.345 |
| B5 | 1.31 |
| B6 | 0.385 |
| B7 | 0.359 |
| B8 | 0.69 |
| B9 | 8.28 |
| B10 | 2.72 |
| B11 | 0.474 |
| B12 | 0.412 |
| B13 | 0.676 |
| B14 | 0.779 |
| B15 | 0.31 |
| B16 | 1.35 |
| B17 | 0.533 |
| B18 | 0.632 |
| B19 | 0.509 |
| B20 | 9.77 |
| B21 | 0.501 |
| B22 | 0.545 |
